130 sequences from a collection of fitness landscapes (doi:10.1038/s41467-024-54723-y) can be followed below.

Whole data set: some 18,000 sequences, median “TetR repression strength (sort-seq, GFP reporter)” near 0.23, cut for the highest 2% near 0.68. This is one part of the list.

For this test, the target named is TetR (class B, Tn10) (UniProt P04483). Kind of test: TetR repression strength (sort-seq, GFP reporter) (relative to tetO2 = 1); higher = stronger repression. Conditions: E. coli. Put shortly: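 E. coli SIG10-MAX carried a low-copy plasmid library with eight randomized operator positions between a constitutive promoter and sfGFP, with TetR constitutively expressed. Cells grew 5 h at 37 °C in LB with 50 µg/mL chloramphenicol, then 10^6 cells were FACS-sorted into 13 fluorescence bins, each Illumina-sequenced. Repression strength is the top bin index plus one minus the read-weighted mean bin, divided by the wild-type operator value. Three independent transformations; variants with ≥30 reads in all replicates and CV ≤0.5 were averaged.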
UniProt P04483, sequence (P04483 whole entry): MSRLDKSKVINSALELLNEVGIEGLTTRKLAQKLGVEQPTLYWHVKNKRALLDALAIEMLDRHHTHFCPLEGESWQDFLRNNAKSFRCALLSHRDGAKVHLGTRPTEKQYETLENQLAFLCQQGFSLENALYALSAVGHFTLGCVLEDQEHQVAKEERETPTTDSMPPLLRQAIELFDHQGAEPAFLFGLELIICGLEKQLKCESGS
TCCCACCGAGTCCTGGAGA returned a TetR repression strength of 0.254.

Sequence TCCCGCCAAGTGAGGGAGA came in with a TetR repression strength of 0.591.

TCCCATACAGTAAGTGAGA: the TetR repression strength amounted to 0.201.

TCCCCTTCAGTGGTCGAGA registered a TetR repression strength of 0.05.

As for TCCCTTAAAGTCAGCGAGA, the TetR repression strength was 0.245.

TCCCGATAAGTTACGGAGA gave a TetR repression strength of 0.213.

Sequence TCCCTTAGAGTTAATGAGA registered a TetR repression strength of 0.0915.

In turn, TCCCGCGAAGTCCGAGAGA yielded a TetR repression strength of 0.224.

In turn, TCCCTCTTAGTTGCTGAGA yielded a TetR repression strength of 0.53.

In turn, TCCCATCCAGTGTTCGAGA yielded a TetR repression strength of 0.322.

As to TCCCTCCCAGTCCGGGAGA, the TetR repression strength was determined as 0.0326.

On to TCCCTTACAGTGCTGGAGA, for which the TetR repression strength was found to be 0.305.

For TCCCGTTGAGTTGGGGAGA, the TetR repression strength is 0.21.

Take TCCCTTTCAGTTTAGGAGA: the TetR repression strength was 0.227.

TCCCTGCTAGTTCGGGAGA showed a TetR repression strength of 0.377.

TCCCGGTGAGTAAAGGAGA: the TetR repression strength came to 0.241.

On to TCCCCGCAAGTGAGAGAGA, for which the TetR repression strength was 0.0338.

In turn, TCCCAGACAGTGGTTGAGA returned a TetR repression strength of 0.0646.

As for TCCCAGTGAGTTATGGAGA, the TetR repression strength came out at 0.234.

As to TCCCCCCGAGTTTCGGAGA, the TetR repression strength amounted to 0.194.

Sequence TCCCTGCCAGTACTCGAGA registered a TetR repression strength of 0.335.

Sequence TCCCACCGAGTTAATGAGA had a TetR repression strength of 0.312.

TCCCAGTTAGTGTATGAGA showed a TetR repression strength of 0.145.

Sequence TCCCGATCAGTGTGGGAGA had a TetR repression strength of 0.174.

With TCCCGGTTAGTGAATGAGA, the TetR repression strength came to 0.22.

In turn, TCCCGCGAAGTTGTGGAGA displayed a TetR repression strength of 0.141.

In turn, TCCCTGGTAGTGGGTGAGA displayed a TetR repression strength of 0.12.

Turning to TCCCGCCTAGTCGTTGAGA, the TetR repression strength was found to be 0.341.

Sequence TCCCGATTAGTTGGTGAGA returned a TetR repression strength of 0.182.

In turn, TCCCCATCAGTTTGTGAGA yielded a TetR repression strength of 0.281.

As for TCCCTGGTAGTCTGAGAGA, the TetR repression strength came out at 0.295.

Sequence TCCCGCTAAGTATAAGAGA returned a TetR repression strength of 0.207.

With TCCCGTTCAGTCAGTGAGA, the TetR repression strength was 0.473.

In turn, TCCCAAGGAGTCGTCGAGA yielded a TetR repression strength of 0.196.

TCCCTATGAGTTTTGGAGA: the TetR repression strength was found to be 0.291.

Take TCCCTCCAAGTACCTGAGA: the TetR repression strength turned out to be 0.309.

TCCCGTCAAGTCCCAGAGA gave a TetR repression strength of 0.339.

TCCCCATCAGTGAGGGAGA yielded a TetR repression strength of 0.355.

TCCCGTGTAGTCGAAGAGA yielded a TetR repression strength of 0.0462.

In the case of TCCCGCCTAGTGTGTGAGA, the TetR repression strength was determined as 0.105.

As to TCCCCGCGAGTGCCTGAGA, the TetR repression strength was determined as 0.104.

Regarding TCCCGAGAAGTGCCAGAGA, the TetR repression strength was determined as 0.312.

The sequence TCCCGTGGAGTGACGGAGA yielded a TetR repression strength of 0.162.

As for TCCCATCAAGTCAGTGAGA, the TetR repression strength amounted to 0.14.

Regarding TCCCACGAAGTGTGGGAGA, the TetR repression strength came to 0.226.

In turn, TCCCATCGAGTCGCGGAGA registered a TetR repression strength of 0.213.

TCCCTAACAGTAGCCGAGA gave a TetR repression strength of 0.311.

Sequence TCCCGGAAAGTGCGAGAGA displayed a TetR repression strength of 0.0942.

For TCCCCGTGAGTCGACGAGA, the TetR repression strength stood at 0.377.

Regarding TCCCCGGTAGTAACGGAGA, the TetR repression strength was determined as 0.249.

As to TCCCCTCAAGTGGCGGAGA, the TetR repression strength was 0.159.

Sequence TCCCCGCTAGTAAGAGAGA showed a TetR repression strength of 0.247.

In turn, TCCCTTGTAGTGGCCGAGA came in with a TetR repression strength of 0.442.

Regarding TCCCAGAAAGTATGGGAGA, the TetR repression strength came to 0.248.

Regarding TCCCTCGAAGTGCTCGAGA, the TetR repression strength was 0.0305.

As for TCCCTCGAAGTCGACGAGA, the TetR repression strength came to 0.0272.

TCCCGTTTAGTACTTGAGA: the TetR repression strength turned out to be 0.00451.

Regarding TCCCTGGGAGTATTTGAGA, the TetR repression strength stood at 0.155.

For TCCCCGGCAGTGTTTGAGA, the TetR repression strength was 0.09.

In the case of TCCCAGCGAGTATTCGAGA, the TetR repression strength is 0.286.

Turning to TCCCGCTAAGTCGCGGAGA, the TetR repression strength was 0.184.

As to TCCCGTACAGTATAGGAGA, the TetR repression strength amounted to 0.0753.

In the case of TCCCAGTGAGTGAAGGAGA, the TetR repression strength was 0.0721.

Consider TCCCATTAAGTGAAGGAGA, for which the TetR repression strength stood at 0.258.

TCCCCGGGAGTACGTGAGA showed a TetR repression strength of 0.17.

Regarding TCCCGCGGAGTTGTTGAGA, the TetR repression strength worked out at 0.197.

With TCCCGTCCAGTCACCGAGA, the TetR repression strength was found to be 0.286.

TCCCTACGAGTTAAGGAGA had a TetR repression strength of 0.187.

As to TCCCGTGGAGTACGCGAGA, the TetR repression strength was 0.245.

As for TCCCAGGAAGTCTGGGAGA, the TetR repression strength turned out to be 0.294.

In the case of TCCCTTCCAGTTTCAGAGA, the TetR repression strength amounted to 0.819.

The sequence TCCCGCGAAGTACGCGAGA had a TetR repression strength of 0.434.

In the case of TCCCCGGGAGTCCACGAGA, the TetR repression strength is 0.252.

With TCCCAAGGAGTGTGAGAGA, the TetR repression strength turned out to be 0.333.

TCCCTTGTAGTGGTAGAGA came in with a TetR repression strength of 0.35.

TCCCTTGAAGTTGCAGAGA came in with a TetR repression strength of 0.117.

Sequence TCCCCTATAGTGGTGGAGA came in with a TetR repression strength of 0.201.

For the sequence TCCCTCCCAGTCTAAGAGA, the TetR repression strength is 0.402.

Turning to TCCCCGACAGTGTGAGAGA, the TetR repression strength was 0.325.

As to TCCCGGACAGTGCAGGAGA, the TetR repression strength amounted to 0.266.

The sequence TCCCGGAAAGTGGTGGAGA showed a TetR repression strength of 0.128.

On to TCCCGGGAAGTATGCGAGA, for which the TetR repression strength turned out to be 0.0806.

TCCCTGTGAGTAGGAGAGA: the TetR repression strength worked out at 0.318.

Sequence TCCCGCCAAGTGCGCGAGA displayed a TetR repression strength of 0.258.

The sequence TCCCTAGCAGTTTTTGAGA showed a TetR repression strength of 0.19.

TCCCGGTCAGTCAACGAGA registered a TetR repression strength of 0.

For the sequence TCCCACCCAGTGGCAGAGA, the TetR repression strength amounted to 0.508.

As for TCCCAGTAAGTAACCGAGA, the TetR repression strength stood at 0.0571.

With TCCCGCTAAGTATGGGAGA, the TetR repression strength was found to be 0.0148.

Take TCCCTCGGAGTTGCGGAGA: the TetR repression strength came to 0.108.

The sequence TCCCGTCTAGTTGGGGAGA displayed a TetR repression strength of 0.328.

For the sequence TCCCGTTCAGTACTTGAGA, the TetR repression strength is 0.239.

The sequence TCCCGATGAGTATGTGAGA came in with a TetR repression strength of 0.366.

The sequence TCCCGCTGAGTCGGTGAGA yielded a TetR repression strength of 0.115.

In turn, TCCCACTGAGTTTGAGAGA registered a TetR repression strength of 0.365.

TCCCGTCGAGTCGGTGAGA showed a TetR repression strength of 0.356.

Sequence TCCCGGTGAGTTTGAGAGA had a TetR repression strength of 0.428.

Turning to TCCCCAGGAGTCCGAGAGA, the TetR repression strength stood at 0.114.

With TCCCTGCTAGTGGGAGAGA, the TetR repression strength was 0.261.

Sequence TCCCTTTGAGTAGGTGAGA came in with a TetR repression strength of 0.168.

For TCCCCTGTAGTGTTCGAGA, the TetR repression strength was 0.11.

Take TCCCAGTAAGTCTGCGAGA: the TetR repression strength was found to be 0.0074.

Consider TCCCTTTAAGTGTAGGAGA, for which the TetR repression strength came out at 0.359.

TCCCGATTAGTTTTGGAGA: the TetR repression strength was determined as 0.29.

Take TCCCGGTCAGTGGAGGAGA: the TetR repression strength was determined as 0.0362.

On to TCCCAGTGAGTCAAGGAGA, for which the TetR repression strength stood at 0.204.

TCCCGCGCAGTTATGGAGA displayed a TetR repression strength of 0.236.

As for TCCCAGGTAGTCCTGGAGA, the TetR repression strength was determined as 0.117.

As for TCCCCGTAAGTAGAAGAGA, the TetR repression strength was determined as 0.181.

TCCCATCCAGTGTCCGAGA came in with a TetR repression strength of 0.483.

Consider TCCCTGGCAGTGGCGGAGA, for which the TetR repression strength stood at 0.246.

Regarding TCCCCCTAAGTTTATGAGA, the TetR repression strength is 0.326.

Turning to TCCCCGTAAGTCGTAGAGA, the TetR repression strength is 0.245.

In turn, TCCCATGAAGTTTGGGAGA yielded a TetR repression strength of 0.622.

TCCCGGTAAGTTAACGAGA: the TetR repression strength came to 0.0246.

Sequence TCCCGGTTAGTAAGTGAGA had a TetR repression strength of 0.388.

In turn, TCCCGGCCAGTAGGGGAGA registered a TetR repression strength of 0.275.

For the sequence TCCCATTTAGTTTCTGAGA, the TetR repression strength is 0.0306.

Sequence TCCCGCTGAGTAGTTGAGA showed a TetR repression strength of 0.207.

For TCCCAACCAGTGAGTGAGA, the TetR repression strength amounted to 0.415.

TCCCCCCGAGTGTCCGAGA displayed a TetR repression strength of 0.415.

Sequence TCCCTTACAGTTCCTGAGA showed a TetR repression strength of 0.494.

For the sequence TCCCTCAGAGTACTAGAGA, the TetR repression strength stood at 0.17.

In turn, TCCCCGCGAGTTTTGGAGA returned a TetR repression strength of 0.21.

The sequence TCCCCGAGAGTGCTGGAGA gave a TetR repression strength of 0.252.

As for TCCCCGCGAGTGACGGAGA, the TetR repression strength amounted to 0.181.

Sequence TCCCAGCGAGTGGCTGAGA registered a TetR repression strength of 0.0853.

In turn, TCCCTTTCAGTAGGGGAGA showed a TetR repression strength of 0.194.

As to TCCCGGCTAGTCCCCGAGA, the TetR repression strength came to 0.325.

For TCCCAGGGAGTCGGGGAGA, the TetR repression strength was found to be 0.454.
